Assay results reported in the supplement of paper PMC10126150.
Values marked as one replicate rest on one cluster of the flow cell; about a third of the high ones do not repeat.

System: ATP
Assay: switch fluorescence ratio, 500 uM ATP over buffer (Cy3 cluster intensity, sum of 5 cycles each) (fold (ratio)); higher = stronger signal-on switching upon ATP binding; sequences stand for … in TCGTCGGCAGCGTCAGATGTGTATAAGAGACAGTTTTTTTTTTTTTTTTTTTTTTTTT…TC
Conditions: aptamer strand: ATP DNA aptamer (quencher-CACCTGGGGGAGTATTGCGGAGGAAGG + anchor), 100 nM annealed; ATP concentration: 500 uM; one replicate
Outline: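 The fluorescence ratio divides summed target-cycle Cy3 intensity by summed buffer-cycle Cy3 intensity for each cluster and is averaged per switch-domain sequence. Cy3-labelled switching-strand clusters on a modified Illumina MiSeq flow-cell were annealed to 100 nM quencher-labelled ATP aptamer, then imaged in selection buffer and again after 15 min with 500 uM ATP at 22 °C. Five such cycles were run, with NaOH stripping and re-annealing between them, and clusters outside 100-1000 RFU were excluded.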
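Note: ATP exposure 15 min at 22 °C before imaging.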

Row | Sequence | switch fluorescence ratio
1 | CAAGTTCCAT | 0.984
2 | TCCGGCAG | 3.06
3 | GTCGAGAAAT | 1.02
4 | TCTTACCCTG | 0.971
5 | GCATCGCTTG | 1.06
6 | GTGTCCCCTC | 1.06
7 | CATTACCACC | 1.26
8 | CGGGGACCGT | 1.03
9 | GCCAGAACTT | 0.97
10 | TAAAGACCG | 0.984
11 | GGCCTCTAAT | 1.02
12 | AAGGTTTTA | 0.988
13 | ACTTTGGCTG | 0.993
14 | AAGAAGGGTG | 0.972
15 | TGGACGAGGT | 1.02
16 | ATGACGTCGT | 1.03
17 | TATTAAAATC | 1.01
18 | ATTATACAC | 1.02
19 | GGTAGCTATC | 1.08
20 | AGTTTGTTGA | 1.02
21 | ATTGATTTTG | 1
22 | TTGTTACCTA | 1.06
23 | TCGTTTCCCG | 1.01
24 | GACATCTGAC | 1.04
25 | TGTCGGCCGC | 1.04
26 | TTATAGTGTG | 0.978

Row | Sequence | switch fluorescence ratio
27 | TCCGCCTTCA | 1.3
28 | GACGGGGAGC | 1.08
29 | ACGGGATGGC | 1.06
30 | GGACCGGTGT | 1.01
31 | GCAGTATTGT | 1.01
32 | TATTGGT | 0.992
33 | TCCTTCACCG | 1.94
34 | CACCATGGGG | 1.03
35 | GAGAGCAA | 1.75
36 | ATTGCGCACC | 1.03
37 | ACCTAGAGGA | 1.01
38 | TACGACAGCG | 0.994
39 | CATTGGAGTT | 1.03
40 | CATGAGCAGG | 1.12
41 | CCGCCGCGCG | 2.58
42 | ATGATTGGGG | 0.974
43 | AGCCGCTAGA | 1.08
44 | GCAAGGTGAC | 1.36
45 | AGGGTGGGCG | 0.932
46 | CTATTATCGC | 1.06
47 | GCTATTTCGA | 0.973
48 | AGGGCTTCTG | 0.97
49 | GAAAGTATCT | 1.01
50 | GATAGTTTTA | 0.962
51 | ACTAGCCCAA | 1.05
52 | GAAAGGTTAC | 1.05

Row | Sequence | switch fluorescence ratio
53 | GACTTAATTA | 1.02
54 | GTGTAAACGA | 1.01
55 | GGCTGCCCCA | 1.04
56 | GGCAACGTGC | 1
57 | AACCGCGCAG | 1.1
58 | TTAATTGGCA | 1.01
59 | AAAGTGCAAT | 1.09
60 | TACGAAAAAT | 1.18
61 | TATGTGTGAG | 0.989
62 | GGAGATGTTC | 1.04
63 | CTCTTGCGCA | 1.11
64 | AGACTATGAT | 1.01
65 | TTGACAACG | 0.941
66 | TTCTTGGTAA | 1.04
67 | TCAATAAGAC | 1.04
68 | TAGATGTTCA | 1.04
69 | GGTTCCTCGT | 1.13
70 | ACCCCGGTTG | 1.06
71 | GGTGGCAGGC | 0.993
72 | GCATTATTGC | 1.02
73 | TCAGTCCATT | 0.96
74 | AGGATTAAGA | 0.987
75 | CTACTTTGTG | 1.01
76 | TTGGCTGAAG | 0.955
77 | AGCGGCTAAA | 1
78 | TTGTTAGCCG | 1.18

Row | Sequence | switch fluorescence ratio
79 | ATTTATCCGT | 1.03
80 | ATACGGATAG | 1.06
81 | CAGCAAATCC | 1.68
82 | AAGTTGAAT | 0.995
83 | GAAATTAAAT | 0.99
84 | ACCTCACATA | 1.23
85 | AGTCGTTGCA | 1.01
86 | GTTTACTATT | 0.994
87 | AATTTAAGCA | 1.02
88 | CTCCATACGA | 2.99
89 | TCGGACACA | 0.953
90 | AGGAGCCAAA | 0.966
91 | AGTCGGACCA | 0.938
92 | TTGTACACGG | 0.993
93 | ATAGTAGGAC | 1.03
94 | TGTCTCTTCT | 0.962
95 | GTTAGAACAA | 0.976
96 | TAGTCCAATT | 0.987
97 | CTATCATCGC | 1.04
98 | CCACGGTTGT | 0.98
99 | CCTTATGGTT | 0.978
100 | GGAAAGGCGA | 1.03
101 | CCGGATGGGA | 3.88
102 | TCCCCAGGCT | 2.09
103 | TATGCTGACG | 1.06
104 | TTCGCCTGCG | 0.953

Row | Sequence | switch fluorescence ratio
105 | TGACCCCTTG | 1.03
106 | CATATTAGTG | 1.03
107 | ATACGTACGG | 1.68
108 | CATTCTGTAC | 1.08
109 | CGACGATCAA | 2.12
110 | GGGAGAATGT | 0.999
111 | TTACTGGCCT | 1.07
112 | GGTCTAGATG | 1.02
113 | CGGCGCTTGC | 1.68
114 | GTGGCCGCGA | 1.16
115 | TAGTAGGTGT | 1.08
116 | CGAGTTGGTT | 1
117 | CCTTCAAGGA | 1
118 | CAGTTTGTCC | 0.985
119 | TTTCATTTCG | 1.02
120 | GCGAAGATCC | 1.04
121 | AGTACGTCCT | 1.05
122 | TCAGTAATG | 0.994
123 | GGCTTGATTG | 0.98
124 | AACTTTATAA | 0.992
125 | AAAAGCGCTA | 1.02
126 | CGAGATTCGG | 1.05
127 | ACATCTCTTA | 1.04
128 | TATTCATGAG | 0.974
129 | AAACAGTCGA | 1.03
130 | ATTGACCAGC | 1.06

Row | Sequence | switch fluorescence ratio
131 | TGTAGTACTC | 2.25
132 | GGATGAGGGG | 1.01
133 | GTTATGCTGT | 1.07
134 | TATTTCGTGC | 1.05
135 | CAGATTAATA | 0.977
136 | TGTCTAAGG | 0.982
137 | AAACATGATG | 0.97
138 | TCGCGTCATC | 1.02
139 | AACGACGTAC | 2.08
140 | CACACTGTGT | 1.05
141 | CGAGTCGTAT | 0.983
142 | GAAGGG | 0.942
143 | GGACCGCGGC | 1.09
144 | ACTGCTCAG | 1.02
145 | AACCCCATA | 1.08
146 | AAATTGACCG | 0.991
147 | GAGCGCTGTG | 1.01
148 | AATACCCTGG | 1
149 | TGAGGCGACC | 1.08
150 | TATAAAGCTA | 1.04
151 | CGCTATGTTC | 1.34
152 | GGGAGCAGGT | 0.994
153 | ATACTATGTA | 0.954
154 | ATTGGTGAAA | 1.01
155 | CCGGGTGCCA | 1.12
156 | TCGGACCAGG | 1.1

Row | Sequence | switch fluorescence ratio
157 | GTGCTATGGT | 0.976
158 | AGATACTCAG | 1.07
159 | GCTGTAGTTC | 1.14
160 | TTCCGTTCTC | 1.14
161 | GAGCATCGGT | 1.05
162 | TCGTTGCTAT | 1.02
163 | CGGCGGTATA | 0.951
164 | GGTTTTCTAT | 0.96
165 | TAACAGACGC | 1.3
166 | TTGGGCTCTT | 1.01
167 | AGCACCCGTC | 1.07
168 | GGAAGCCTTC | 1.07
169 | GTCCGAGCGT | 1.23
170 | CTGTATGAGC | 1.18
171 | GCTACGATAT | 1.33
172 | TTAATTTTGA | 0.996
173 | CCACTAAGGT | 1.01
174 | TCGGCTGGAG | 0.959
175 | GTATAGATTA | 1.03
176 | GTCAGCCATC | 1.08
177 | GGTGTGTCAA | 1.02
178 | GGTGCCACGA | 0.986
179 | ATTGGCGCTC | 1.01
180 | TTTGTCGAGT | 1.01
181 | CTTGGTTTA | 0.958
182 | ACGTCATGTG | 1.07

Row | Sequence | switch fluorescence ratio
183 | TGGCGCAGTG | 1.01
184 | GCTCAGTGTT | 1
185 | GTTATGATTG | 0.946
186 | GTTGTGAACG | 0.975
187 | TTTACCGATT | 1.03
188 | TAGTAAGAA | 0.996
189 | TCCATAGGTT | 1.01
190 | GCACTAAATT | 1.03
191 | CGTTTGGAAA | 0.975
192 | CATGCTGACG | 1.01
193 | GGCCTGATGG | 1.02
194 | CTAGAACGTT | 1.01
195 | AGACGGAGCT | 1.33
196 | CATGCTCAGT | 0.992
197 | GATAACTGT | 1.02
198 | CGACGTTCTC | 1.57
199 | TAAGTGAGAC | 1.11
200 | CCTGGCGCCG | 0.982
201 | CATTGGGCGC | 0.997
